Data on 55 molecules can be found in ChEMBL document CHEMBL4888484, “Replenishing the malaria drug discovery pipeline: Screening and hit evaluation of the MMV Hit Generation Library 1 (HGL1) against asexual blood stage Plasmodium falciparum ,using a nano luciferase reporter read-out” (2022).

Among all 150,000 compounds or so, about 540 (0.36%) showed an effect of 50% or more. The list shows a part of the results.

As usually defined, the % Inhibition is the change of the read-out against control, counted positive when it falls.

The subject of this experiment is Plasmodium falciparum. The experiment can be described thus: Primary screen in NF54 nanoGlo assay, in single point, at 2uM, 72h; a lower Z score goes with more inhibition. In kind it is functional, Erythrocyte. The following applies: timepoint 72 hour.
With `C[C@@H]1CN(c2ncnc(-c3ccccc3)n2)CCN(C2CC2)C1`, the “% Inhibition” value was -16% and the Z score was determined as 1.73.

For the molecule `COc1ccc(-c2nc(N3CCC[C@H]3c3ccc(OC)cc3)[nH]c(=O)c2C#N)cc1`, the “% Inhibition” value is recorded as 9% and the Z score is listed as -1.84.

`COC[C@H]1[C@H](NC(=O)CCc2ccc(F)c(F)c2)[C@H]2CCO[C@H]21`: the “% Inhibition” value was -1% and the Z score amounted to 0.13.

With `CCCN(Cc1c(C(C)C)nn(-c2ccccc2)c1Oc1cccc(F)c1)C(=O)C1CCC1`, the “% Inhibition” value is reported as -4% and the Z score was 0.66.

Regarding `CC(C)(C(=O)NCCc1ccccn1)c1nccs1`, the “% Inhibition” value is -7% and the Z score is recorded as 0.92.

Turning to `O=S(=O)(c1ccc(Br)c(S(=O)(=O)N2CCCCC2)c1)N1CCCCC1`, the “% Inhibition” value is -6% and the Z score worked out at 1.07.

For `COC(C)(C)CNC(=O)N[C@@H](CO)c1cc(F)c(F)c(F)c1`, the “% Inhibition” value was -4% and the Z score stood at 0.67.

`O=C(Nc1nc2c(s1)CCC2)C1CCC1`: the “% Inhibition” value is listed as -9% and the Z score stood at 1.19.

For `COc1ccc(CC(=O)Nc2c[nH]c(=O)nc2O)cc1`, the “% Inhibition” value is recorded as 0% and the Z score was -0.03.

For `CC(C)(CO)NC(=O)c1cnn(-c2ncc3c(n2)-c2ccccc2CCC3)c1C1CC1`, the “% Inhibition” value is listed as -16% and the Z score stood at 2.25.

Regarding `CN(CCCNS(C)(=O)=O)c1cccc2c1CCCN2CCCNS(C)(=O)=O`, the “% Inhibition” value is given as -6% and the Z score is listed as 0.57.

`Cc1cccc(S(=O)(=O)N[C@H](C(=O)O)C(C)C)c1Cl`: the “% Inhibition” value is reported as -8% and the Z score stood at 1.1.

In the case of `C[C@@H](C1CCCCC1)n1c(CN)n[nH]c1=O`, the “% Inhibition” value is listed as -6% and the Z score is on record as 0.58.

With `CC[C@H](NC(=O)c1coc(Cn2cnc3ccccc32)n1)c1ccc(C)cc1`, the “% Inhibition” value is listed as 11% and the Z score is on record as -1.42.

For the molecule `Cc1ccc(C)c(-n2nc(C3CCOCC3)nc2CCc2cnccn2)c1`, the “% Inhibition” value was -14% and the Z score is listed as 1.33.

For the molecule `Cc1nc(C(C)(C)NCc2nnnn2C2CC2)sc1C`, the “% Inhibition” value came to 8% and the Z score is reported as -1.07.

For the molecule `COc1cccc([C@H](C)N(C)Cc2nc(-c3cccs3)no2)c1`, the “% Inhibition” value is reported as -9% and the Z score is recorded as 1.11.

Regarding `CCN1C[C@H](NC(=O)COCc2ccc(OC)cc2)C(C)(C)C1`, the “% Inhibition” value is reported as -8% and the Z score is on record as 0.88.

On to `CC(Nc1ccc2c(c1)NC(=O)C(C)O2)C(=O)N1CCOCC1` (stereo not given), for which the “% Inhibition” value is on record as -4% and the Z score was determined as 0.73.

On to `Cn1cc([C@@H](NC(=O)COc2ccc(F)cc2)C2CC(O)C2)cn1` (stereo not given in full), for which the “% Inhibition” value is listed as -19% and the Z score was determined as 1.89.

On to `CNC(=NCC1(Cc2ccccc2)CC1)NC`, for which the “% Inhibition” value is listed as -4% and the Z score turned out to be 0.7.

Take `CC(C)n1nccc1-c1nnc(NC(=O)c2cccs2)o1`: the “% Inhibition” value is -16% and the Z score was 3.05.

On to `Cc1ccc(CN2CC[C@H](c3sccc3C)[C@@H](O)C2)cc1`, for which the “% Inhibition” value is on record as -11% and the Z score worked out at 2.3.

Turning to `CCN(CCCNc1cncc(Br)c1)S(C)(=O)=O`, the “% Inhibition” value is -15% and the Z score is reported as 2.36.

As to `CCCc1nc(-c2cc3cc(C)ccc3nc2NCc2ccco2)no1`, the “% Inhibition” value stood at 15% and the Z score is -1.82.

As to `CCCN(C(=O)c1cccs1)C1CCN(C(=O)[C@@H]2COCCO2)CC1`, the “% Inhibition” value is on record as 1% and the Z score is reported as -0.12.

As for `CC(CCc1ccc2c(c1)OCO2)NC1CCS(=O)(=O)C1` (stereo not given), the “% Inhibition” value is reported as -8% and the Z score came to 1.32.

`N#Cc1c(NC(=O)CC(=O)Nc2sc3c(c2C#N)CCCCC3)sc2c1CCCCC2`: the “% Inhibition” value is given as 3% and the Z score is listed as -0.47.

For `O=C1[C@H](c2ccncc2)N(Cc2ccccc2)C(=O)CN1c1ccccc1`, the “% Inhibition” value is on record as 29% and the Z score is reported as -3.24.

As to `CCC[C@H]1CN(C(=O)CCc2c(C)n[nH]c2C)C[C@@H]1N(C)C`, the “% Inhibition” value is given as -15% and the Z score is recorded as 1.66.

On to `CCCc1cc([C@@H]2CCCN2Cc2cccnc2)no1`, for which the “% Inhibition” value was -13% and the Z score worked out at 1.81.

In the case of `CC(C)=C(F)C(=O)N1CC[C@H](CO)C[C@@H]1C`, the “% Inhibition” value is given as 36% and the Z score is given as -0.69.

As to `Cc1c(S(=O)(=O)N(C)[C@H](C)c2cccnc2)cnn1C`, the “% Inhibition” value is 5% and the Z score is on record as -0.72.

Take `Cc1c(Cl)cccc1N1CCCN(C(=O)c2ccnn2C)CC1`: the “% Inhibition” value is given as -11% and the Z score is recorded as 1.87.

Turning to `O=C(c1ccncc1)N1CCC[C@@H]1Cn1ccnc1`, the “% Inhibition” value came to 2% and the Z score is recorded as -0.39.

As to `O=C(NC1(c2ccccc2)COC1)[C@H]1CCc2[nH]ncc2C1`, the “% Inhibition” value was -10% and the Z score is 1.9.

As for `C#CCCC1(CCC(=O)N2CCc3ccc(F)cc3[C@@H](C)C2)N=N1`, the “% Inhibition” value is recorded as -15% and the Z score was found to be 1.91.

As for `FC(F)(F)c1cccc(Cn2nc(-c3ccccc3)c3oc4ccccc4c32)c1`, the “% Inhibition” value is -15% and the Z score is listed as 1.76.

`Cc1ccccc1C(=O)N1CC(=O)N2CCc3ccccc3[C@@H]2C1`: the “% Inhibition” value is on record as -4% and the Z score is 0.56.

`Cn1nc(CN(C(=O)c2ccsc2)C2CCCC2)cc1C1CC1`: the “% Inhibition” value turned out to be 16% and the Z score is -2.05.

For the molecule `COc1ccccc1CC(=O)N1CC[C@H](Oc2ccncc2Cl)C1`, the “% Inhibition” value is reported as -6% and the Z score was found to be 1.14.

`Cc1cc(NC(=O)C(c2ccccc2)c2ccccc2)sn1`: the “% Inhibition” value worked out at 0% and the Z score is reported as -0.02.

As for `O=C(COc1ccc(F)c(F)c1)N1CCOC[C@H]1c1ccco1`, the “% Inhibition” value was 2% and the Z score was -0.44.

For `O=S(=O)(c1ccc2c(c1)CCO2)N1CCC[C@@H]1Cn1nccn1`, the “% Inhibition” value is reported as -4% and the Z score was 0.72.

For `Cc1ccc(Cl)cc1NS(=O)(=O)c1ccc(-c2nnc(C3CCC3)o2)s1`, the “% Inhibition” value is recorded as -10% and the Z score was found to be 1.42.

For `CN(CC1CCCCC1)[C@H]1CCc2nn(C)c(=O)n2CC1`, the “% Inhibition” value is listed as -4% and the Z score came to 0.67.

Regarding `COc1cccc(Cl)c1CC(=O)N[C@@]1(C)CCOC1`, the “% Inhibition” value is 6% and the Z score is -0.77.

Consider `CC(C)OCC[C@H]1CCCCN1C(=O)c1cccc(C(=O)O)n1`, for which the “% Inhibition” value is 32% and the Z score is given as -3.23.

Consider `CCCn1c(C)cnc1[C@H]1CCN(C(=O)NCc2ccc(C)cc2)C1`, for which the “% Inhibition” value was -6% and the Z score worked out at 0.97.

Take `COc1ccc(CNc2cn(C)nc2-c2ccncc2)cc1Br`: the “% Inhibition” value is listed as 0% and the Z score is -0.03.

For `COCc1sccc1C(=O)NC[C@H]1CC(C)(C)CO1`, the “% Inhibition” value was -1% and the Z score came out at 0.18.

On to `COC(=O)CC(C)(C)CC(=O)N(C)[C@H]1CCS(=O)(=O)C1`, for which the “% Inhibition” value is listed as -7% and the Z score was 0.88.

Take `CC(C)(C)CC1(NC(=O)CCCn2cnnn2)CC1`: the “% Inhibition” value is listed as -7% and the Z score is given as 1.32.

Regarding `O=C(N[C@H]1CCCc2occc21)c1ccncc1`, the “% Inhibition” value is given as -2% and the Z score was 0.17.

In the case of `C[C@H](O)C1CCN(C(=O)CCc2ccncc2)CC1`, the “% Inhibition” value is -7% and the Z score was found to be 0.91.
